Test results reported in the supplement of paper PMC4723716.
± gives the uncertainty stated by the source. The full ranking holds about 9,900 compounds; the median of “viability index relative to DMSO control” is about 1, and the lowest 2% start at about 0.85. The list shows a part of the results.

Each compound was assayed on Plasmodium falciparum NF54 stage V gametocytes (assay: viability index relative to DMSO control (fraction); higher = less gametocyte killing). Settings: 2.5 µM, library set: Broad Institute DOS, incubation time: 72 h.
Method in brief: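 Gametocytes (P. falciparum NF54, stage V) were treated with compound at 2.5 µM for 72 hr at 37°C in low oxygen, in serum-free medium at 0.75% gametocytemia and 1.25% hematocrit. Counts of 20–70 µm2 red particles, taken from one field per well after MitoTracker Red CMXRos with saponin, were divided by the plate mean of solvent-only wells. This ratio is the viability index.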

Row | Compound | viability index
1 | O=C(NCC[C@H]1CC[C@H](NC(=O)C2CCOCC2)[C@H](CO)O1)c1cc(Cl)cc(Cl)c1 | 1.072 ± 0.0018
2 | COc1ccc(NC(=O)N(C)C[C@@H]2OCc3cnnn3CCCC(=O)N([C@H](C)CO)C[C@H]2C)c(OC)c1 | 1.08 ± 0.063
3 | CC[C@@H]1C/C=C\C[C@H](C(C)C)NC(=O)CCC(=O)N1 | 0.969 ± 0.16
4 | O=C(C[C@@H]1C[C@H]2c3cc(NS(=O)(=O)c4ccc(F)cc4)ccc3O[C@H]2[C@@H](CO)O1)NCc1cccnc1 | 1.12 ± 0.071
5 | COc1ccc2c3c([C@@H](CO)N(Cc4ccccc4)C[C@]33CN(C3)C(=O)c3ccccc3F)n(C)c2c1 | 0.952 ± 0.048
6 | CCS(=O)(=O)N1C[C@@]2(C1)CN([C@@H](CO)c1[nH]c3cc(OC)ccc3c21)S(=O)(=O)c1cccc(OC)c1 | 1.03 ± 0.068
7 | CO[C@H]1CN(C)C(=O)c2cc(NC(=O)c3ccc4c(c3)OCO4)ccc2OC[C@H](C)N(CCC(F)(F)F)C[C@H]1C | 1.12 ± 0.035
8 | C[C@@H]1CCCCO[C@@H](CN(C)Cc2ccc3c(c2)OCO3)[C@@H](C)CN([C@H](C)CO)C(=O)c2cc(NS(=O)(=O)c3cn(C)cn3)ccc2O1 | 0.968 ± 0.067
9 | COc1ccccc1NC(=O)N1C[C@@H]2N[C@H](C1)[C@@H]2c1ccc(-c2cccc(C#N)c2)cc1 | 1.06 ± 0.077
10 | O=C(C[C@@H]1CC[C@@H]2[C@H](COC[C@H](O)CN2C(=O)c2cccnc2)O1)NCC1CC1 | 1.12 ± 0.041
11 | CN(C)C(=O)c1cccc(-c2ccc3c(c2)[C@H]2[C@H](CCN2Cc2nccs2)[C@@H](CO)N3)c1 | 1.18 ± 0.023
12 | O=C(NCCc1ccncc1)[C@H]1[C@H](CO)[C@H]2Cn3c(ccc(-c4ccccc4)c3=O)[C@H]2N1C(=O)C1CC1 | 1.034 ± 0.0004
13 | COc1cccc(C#Cc2ccc([C@H]3[C@@H](CO)N(C(=O)c4ccccn4)[C@H]3C#N)cc2)c1 | 0.8087 ± 0.0043
14 | C[C@@H]1CCCCO[C@H](CN(C)CC2CCCCC2)[C@@H](C)CN([C@H](C)CO)C(=O)c2cc(NC(=O)Nc3ccc(C(F)(F)F)cc3)ccc2O1 | 1.07 ± 0.029
15 | COc1ccc(S(=O)(=O)N(C)C[C@@H]2Oc3ccc(NC(=O)Nc4ccc(C(F)(F)F)cc4)cc3C(=O)N([C@H](C)CO)C[C@@H]2C)cc1 | 1.03 ± 0.039
16 | C[C@H](CO)N1C[C@H](C)[C@H](CN(C)S(=O)(=O)c2cccc(F)c2)Oc2ncc(C#CC3(O)CCCC3)cc2C1=O | 1.04 ± 0.06
17 | C[C@@H]1CN([C@@H](C)CO)C(=O)c2cc(NS(=O)(=O)c3cn(C)cn3)ccc2O[C@H]1CN(C)S(=O)(=O)c1ccc(F)cc1 | 1.06 ± 0.038
18 | COCC(=O)Nc1ccc2c(c1)C(=O)N(C)[C@H]1CC[C@@H](CC(=O)N3CCc4ccccc4C3)O[C@@H]1CO2 | 0.948 ± 0.036
19 | CCC(=O)N1C[C@H](O)COC[C@H]2O[C@H](CC(=O)NC)CC[C@@H]21 | 1.155 ± 0.0098
20 | C[C@@H]1CN([C@H](C)CO)C(=O)c2ccccc2-c2ccccc2CO[C@@H]1CN(C)Cc1cccc2c1OCCCO2 | 0.941 ± 0.019
21 | CO[C@H](CN(C)S(=O)(=O)c1cn(C)cn1)[C@@H](C)CN(C(=O)Nc1ccc(C(F)(F)F)cc1)[C@@H](C)CO | 1.01 ± 0.036
22 | O=C(c1ccc(F)cc1)N1CC(=O)N2[C@H](CO)[C@H](c3ccc(C#CCC4CCCC4)cc3)[C@@H]2C1 | 1.03 ± 0.053
23 | C[C@@H]1CCCCO[C@@H](CN(C)C(=O)c2ccncc2)[C@@H](C)CN([C@@H](C)CO)C(=O)c2cc(NS(=O)(=O)c3cccs3)ccc2O1 | 1.04 ± 0.14

Row | Compound | viability index
24 | COc1cccc(C(=O)Nc2ccc3c(c2)C(=O)N(C)[C@@H]2CC[C@H](CC(=O)NCc4ccc(F)cc4)O[C@H]2CO3)c1 | 1.08 ± 0.15
25 | COc1ccc2c3c([C@@H](CO)N(C[C@]33CN(Cc4ccc(Cl)cc4)C3)C(C)=O)n(C)c2c1 | 0.938 ± 0.026
26 | CO[C@H]1CC[C@@H]2CCOc3c(C#N)cccc3C(=O)N(C)C[C@H](c3ccccc3)CC(=O)N(C)C[C@@H]1O2 | 1.14 ± 0.013
27 | C[C@@H]1CN([C@H](C)CO)C(=O)c2cccc(NC(=O)Nc3ccc4c(c3)OCO4)c2O[C@@H]1CN(C)S(C)(=O)=O | 0.992 ± 0.087
28 | CNC(=O)C[C@@H]1CC[C@H]2[C@@H](COc3ccc(NC(=O)c4ccccc4F)cc3C(=O)N2C)O1 | 1.12 ± 0.049
29 | C/C=C/c1ccccc1[C@@H]1[C@H](C#N)N(C(=O)c2cccnc2)[C@H]1CO | 1.14 ± 0.071
30 | C[C@@H]1CN([C@H](C)CO)C(=O)c2cc(C3=CCCCC3)cnc2O[C@H]1CN(C)S(=O)(=O)c1cn(C)cn1 | 0.979 ± 0.075
31 | CN(C)CC(=O)N1[C@H](C#N)[C@H](c2ccccc2-c2ccc(C(=O)N(C)C)cc2)[C@H]1CO | 1.14 ± 0.12
32 | CC(C)NC(=O)Nc1ccc2c(c1)C(=O)N([C@@H](C)CO)C[C@@H](C)[C@@H](CN(C)C(=O)C1CCCCC1)OCCCC[C@@H](C)O2 | 1.09 ± 0.069
33 | COc1ccc(-c2ccc3n(c2=O)C[C@H]2[C@H](CO)[C@@H](C(=O)N(C)C)[C@@H]3N2Cc2cncnc2)cc1 | 0.989 ± 0.021
34 | COCC(=O)N1C[C@]2(CCN(Cc3ccccc3)CC2)c2c([nH]c3cc(OC)ccc23)[C@@H]1CO | 1.05 ± 0.044
35 | CO[C@@H](CN(C)Cc1ccc(-c2ccccn2)cc1)[C@@H](C)CN(C(=O)Nc1ccc(F)cc1)[C@H](C)CO | 1.1 ± 0.037
36 | CCCNC(=O)Nc1ccc2c(c1)OC[C@@H](C)N(Cc1cncnc1)C[C@@H](C)[C@@H](OC)CN(C)C2=O | 1.03 ± 0.051
37 | O=C(C[C@H]1C[C@H]2c3cc(NC(=O)Nc4ccccc4)ccc3O[C@H]2[C@H](CO)O1)NCc1ccccc1 | 0.954 ± 0.12
38 | COc1ccc(S(=O)(=O)Nc2ccc3c(c2)OC[C@@H](C)NC[C@H](C)[C@@H](OC)CN(C)C3=O)cc1 | 1.05 ± 0.093
39 | CN(C)C(=O)C[C@H]1C[C@@H]2c3cc(NC(=O)c4cccnc4)ccc3O[C@@H]2[C@H](CO)O1 | 1.063 ± 0.009
40 | CN1C(=O)c2cc(NC(=O)c3cscn3)ccc2OC[C@H]2O[C@H](CC(=O)NCc3ccc(Cl)c(Cl)c3)CC[C@H]21 | 1.08 ± 0.032
41 | CO[C@@H](CN(C)Cc1cc(F)ccc1F)[C@H](C)CN([C@@H](C)CO)S(=O)(=O)c1ccc(C)cc1 | 0.936 ± 0.097
42 | C[C@@H]1CN([C@@H](C)CO)C(=O)CCCn2cc(nn2)CO[C@@H]1CN(C)C(=O)CCC(F)(F)F | 0.944 ± 0.15
43 | COc1ccc2c3c([nH]c2c1)[C@@H](CO)N(C[C@]31CCN(Cc2cccc(F)c2)CC1)C(=O)C1CCOCC1 | 1.02 ± 0.092
44 | CO[C@@H](CN(C)C(=O)C1CCOCC1)[C@@H](C)CN(C(=O)Nc1ccc(C(F)(F)F)cc1)[C@@H](C)CO | 1.08 ± 0.11
45 | O=C(Nc1ccccc1)N1CC(=O)N2[C@H](CO)[C@@H](c3ccc(C#CC4CCCCC4)cc3)[C@H]2C1 | 1 ± 0.13
46 | COc1ccc(NC(=O)N2C[C@H]3[C@@H](c4ccccc42)[C@@H](CO)N3Cc2ccccn2)cc1 | 1.05 ± 0.013

Row | Compound | viability index
47 | NCC[C@@H]1CC[C@H](NS(=O)(=O)c2ccc(Cl)cc2)[C@H](CO)O1 | 1.08 ± 0.093
48 | CN(C)C(=O)c1cccc(-c2ccc3c(c2)[C@H]2[C@H](CCN2C(=O)Cc2ccccc2)[C@@H](CO)N3)c1 | 0.899 ± 0.042
49 | C[C@H]1CC(=O)NCC/C=C\C[C@@H](c2ccc3c(c2)OCO3)NC1=O | 0.982 ± 0.034
50 | Cc1ccc(S(=O)(=O)N(C)C[C@H]2OCCCC[C@H](C)Oc3ccc(NC(=O)c4ccncc4)cc3C(=O)N([C@@H](C)CO)C[C@@H]2C)cc1 | 1.04 ± 0.031
51 | CC(C)NC(=O)N1[C@H](CO)[C@H]2c3ccccc3N(C)C[C@H]21 | 1.1 ± 0.067
52 | Cc1ccccc1-c1ccc([C@@H]2[C@H]3CN(C(=O)c4ccncc4)CC(=O)N3[C@H]2CO)cc1 | 0.971 ± 0.019
53 | COc1ccc(S(=O)(=O)Nc2cccc3c2O[C@H](CN(C)CC2CCCCC2)[C@H](C)CN([C@@H](C)CO)C3=O)cc1 | 1.04 ± 0.034
54 | C/C=C/c1ccc([C@@H]2[C@@H](CO)N(Cc3cccc(F)c3)C23CN(C(C)=O)C3)cc1 | 1.07 ± 0.04
55 | COCC(=O)Nc1ccc2c(c1)OC[C@@H](C)N(C)C[C@@H](C)[C@@H](OC)CN(C)C2=O | 1 ± 0.046
56 | COc1ccc(S(=O)(=O)N(C)C[C@H]2Oc3c(cccc3N(C)C)C(=O)N([C@@H](C)CO)C[C@@H]2C)cc1 | 1.02 ± 0.016
57 | C[C@H]1CNC(=O)[C@H](Cc2ccc(C(F)(F)F)cc2)CCn2nncc2COC1 | 1.06 ± 0.07
58 | COCC(=O)N1[C@H](C#N)[C@@H](c2ccccc2-c2cccc(C)c2)[C@@H]1CO | 1 ± 0.11
59 | COc1ccc(S(=O)(=O)N(C)C[C@@H]2Oc3ccc(N(C)C)cc3CC(=O)N([C@H](C)CO)C[C@H]2C)cc1 | 1.05 ± 0.019
60 | CO[C@H]1CN(C)C(=O)c2cc(NC(=O)C3CCCCC3)ccc2OC[C@@H](C)N(C(=O)c2ccccc2)C[C@H]1C | 0.9824 ± 0.0016
61 | CN1[C@@H]2c3ccc(-c4ccccc4F)c(=O)n3C[C@@H]2[C@@H](CO)[C@@H]1C(=O)Nc1nccs1 | 1.03 ± 0.054
62 | CCCN1C[C@@]2(C1)CN([C@H](CO)c1c2c2ccc(OC)cc2n1C)C(=O)CN1CCOCC1 | 1.01 ± 0.015
63 | O=C(c1ccc2c(c1)OCO2)N1C[C@@H]2[C@H](c3ccccc31)[C@@H](CO)N2C(=O)CC1CC1 | 0.999 ± 0.03
64 | C[C@H](NC(=O)C[C@H]1CC[C@@H]2[C@H](COC[C@H](O)CN2Cc2ccc(C(F)(F)F)cc2)O1)c1ccccc1 | 1.05 ± 0.022
65 | CCC(=O)N1C[C@@H]2[C@H](c3ccccc31)[C@@H](CO)N2C(=O)CC1CC1 | 1.04 ± 0.035
66 | COc1cccc(-c2ccc([C@H]3[C@H]4CNC[C@@H]3N4C(=O)NC3CCCCC3)cc2)c1 | 1.09 ± 0.034
67 | C[C@@H]1CN([C@@H](C)CO)C(=O)CCCn2nncc2CO[C@H]1CN(C)C(=O)Nc1ccc(-c2cccs2)cc1 | 1.08 ± 0.052
68 | O=C(Nc1ccccc1)N1CC(=O)N2[C@@H](CO)[C@@H](c3ccc(C#CC4CCCCC4)cc3)[C@@H]2C1 | 0.9305 ± 0.0073
69 | CO[C@@H]1CN(C)C(=O)c2ccc(NC(=O)Nc3cc(F)ccc3F)cc2OC[C@H](C)N(C(=O)c2ccccn2)C[C@H]1C | 1.08 ± 0.026
